# In the supplement of paper PMC8728848:
# Some of the results follow.
# B1: VLRB.aGPA.23-GCN4-biotin (Petromyzon marinus) (protein)
# chain: ACPSQCSCSGTEVNCAGKSLASVPAGIPTTTRVLYLNSNQITKLEPGVFDRLANLRELHLWGNQLVSLPPGVFDNLANLEKLWLNSNQLTSLPAGLFDRLVNLEHLGLCCMKLTELPSGAFDKLTRLKQLGLDQNQLKSIPDGAFARLPSLTHVWLHTNPWDCQCTDILYLSGWVAQHSSIVGEGWPWRHSPDSAKCSGTNTPVRAVTEASTSPSKCP
# What was measured:
# Assay in all cases: glycan array binding signal (z-score within array); higher = stronger binding
# Details in all cases: glycan notation: IUPAC condensed, linker removed
# [1] = target: Neu5Ac(a2-3)Gal(b1-4)GlcNAc(b1-2)[Neu5Ac(a2-3)Gal(b1-4)GlcNAc(b1-4)]Man(a1-3)[GlcNAc(b1-4)][Neu5Ac(a2-3)Gal(b1-4)GlcNAc(b1-4)Man(a1-6)]Man(b1-4)GlcNAc(b1-4)GlcNAc
# Procedure, shortened: (§1)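 Arrays were curated from the Consortium for Functional Glycomics database, 3228 in total, and kept only where the protein sequence was available. Binding is expressed as a within-array Z-score. This score was averaged across arrays of the same protein sequence at different concentrations or buffers and across linkers, and negative values can be read as non-binding.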
# [2] = target: Neu5Ac(a2-3)Gal(b1-4)GlcNAc(b1-2)[Neu5Ac(a2-3)Gal(b1-4)GlcNAc(b1-6)]Man(a1-6)[Neu5Ac(a2-3)Gal(b1-4)GlcNAc(b1-2)Man(a1-3)]Man(b1-4)GlcNAc(b1-4)GlcNAc
# Procedure, shortened: as §1
# [3] = target: Neu5Ac(a2-3)Gal(b1-4)GlcNAc(b1-2)[Neu5Ac(a2-3)Gal(b1-4)GlcNAc(b1-6)]Man(a1-6)[Neu5Ac(a2-3)Gal(b1-4)GlcNAc(b1-2)Man(a1-3)][GlcNAc(b1-4)]Man(b1-4)GlcNAc(b1-4)GlcNAc
# Procedure, shortened: as §1
# [4] = target: Neu5Ac(a2-3)Gal(b1-4)GlcNAc(b1-3)Gal
# Procedure, shortened: as §1
# [5] = target: Neu5Ac(a2-3)Gal(b1-4)GlcNAc(b1-3)Gal(b1-3)GlcNAc
# Procedure, shortened: as §1
# [6] = target: Neu5Ac(a2-3)Gal(b1-4)GlcNAc(b1-3)Gal(b1-4)GlcNAc
# Procedure, shortened: as §1
# [7] = target: Neu5Ac(a2-3)Gal(b1-4)GlcNAc(b1-3)Gal(b1-4)GlcNAc(b1-2)Man(a1-3)[Neu5Ac(a2-3)Gal(b1-4)GlcNAc(b1-3)Gal(b1-4)GlcNAc(b1-2)Man(a1-6)]Man(b1-4)GlcNAc(b1-4)GlcNAc
# Procedure, shortened: as §1
# [8] = target: Neu5Ac(a2-3)Gal(b1-4)GlcNAc(b1-3)Gal(b1-4)GlcNAc(b1-3)Gal(b1-4)GlcNAc
# Procedure, shortened: as §1
# [9] = target: Neu5Ac(a2-3)Gal(b1-4)GlcNAc(b1-3)Gal(b1-4)GlcNAc(b1-3)Gal(b1-4)GlcNAc(b1-2)Man(a1-3)[Neu5Ac(a2-3)Gal(b1-4)GlcNAc(b1-3)Gal(b1-4)GlcNAc(b1-3)Gal(b1-4)GlcNAc(b1-2)Man(a1-6)]GalNAc
# Procedure, shortened: as §1
# [10] = target: Neu5Ac(a2-3)Gal(b1-4)GlcNAc(b1-3)Gal(b1-4)GlcNAc(b1-3)GalNAc
# Procedure, shortened: as §1
# [11] = target: Neu5Ac(a2-3)Gal(b1-4)GlcNAc(b1-3)Gal(b1-4)GlcNAc(b1-3)[Neu5Ac(a2-3)Gal(b1-4)GlcNAc(b1-3)Gal(b1-4)GlcNAc(b1-6)]GalNAc
# Procedure, shortened: as §1
# [12] = target: Neu5Ac(a2-3)Gal(b1-4)GlcNAc(b1-3)Gal(b1-4)GlcNAc(b1-6)[Gal(b1-3)]GalNAc
# Procedure, shortened: as §1
# [13] = target: Neu5Ac(a2-3)Gal(b1-4)GlcNAc(b1-3)Gal(b1-4)[Fuc(a1-3)]GlcNAc
# Procedure, shortened: as §1
# [14] = target: Neu5Ac(a2-3)Gal(b1-4)GlcNAc(b1-3)GalNAc
# Procedure, shortened: as §1
# [15] = target: Neu5Ac(a2-3)Gal(b1-4)GlcNAc(b1-3)[Neu5Ac(a2-3)Gal(b1-4)GlcNAc(b1-6)]GalNAc
# Procedure, shortened: as §1
# [16] = target: Neu5Ac(a2-3)Gal(b1-4)GlcNAc(b1-6)GalNAc
# Procedure, shortened: as §1
# [17] = target: Neu5Ac(a2-3)Gal(b1-4)GlcNAc(b1-6)[Gal(b1-3)]GalNAc
# Procedure, shortened: as §1
# [18] = target: Neu5Ac(a2-3)Gal(b1-4)GlcNAc(b1-6)[Neu5Ac(a2-3)Gal(b1-3)]GalNAc
# Procedure, shortened: as §1
# [19] = target: Neu5Ac(a2-3)Gal(b1-4)GlcNAc6S
# Procedure, shortened: as §1
# [20] = target: Neu5Ac(a2-3)Gal(b1-4)[Fuc(a1-3)]GlcNAc
# Procedure, shortened: as §1
# [21] = target: Neu5Ac(a2-3)Gal(b1-4)[Fuc(a1-3)]GlcNAc(b1-2)Man
# Procedure, shortened: as §1
# [22] = target: Neu5Ac(a2-3)Gal(b1-4)[Fuc(a1-3)]GlcNAc(b1-3)Gal
# Procedure, shortened: as §1
# [23] = target: Neu5Ac(a2-3)Gal(b1-4)[Fuc(a1-3)]GlcNAc(b1-3)Gal(b1-4)GlcNAc
# Procedure, shortened: as §1
# [24] = target: Neu5Ac(a2-3)Gal(b1-4)[Fuc(a1-3)]GlcNAc(b1-3)Gal(b1-4)[Fuc(a1-3)]GlcNAc(b1-3)Gal(b1-4)[Fuc(a1-3)]GlcNAc
# Procedure, shortened: as §1
# [25] = target: Neu5Ac(a2-3)Gal(b1-4)[Fuc(a1-3)]GlcNAc(b1-3)GalNAc
# Procedure, shortened: as §1
# [26] = target: Neu5Ac(a2-3)Gal(b1-4)[Fuc(a1-3)]GlcNAc(b1-6)[Gal(b1-3)]GalNAc
# Procedure, shortened: as §1
# [27] = target: Neu5Ac(a2-3)Gal(b1-4)[Fuc(a1-3)]GlcNAc(b1-6)[Neu5Ac(a2-3)Gal(b1-3)]GalNAc
# Procedure, shortened: as §1
# [28] = target: Neu5Ac(a2-3)Gal(b1-4)[Fuc(a1-3)]GlcNAc6S
# Procedure, shortened: as §1
# [29] = target: Neu5Ac(a2-3)Gal6S(b1-4)GlcNAc
# Procedure, shortened: as §1
# [30] = target: Neu5Ac(a2-3)Gal6S(b1-4)[Fuc(a1-3)]GlcNAc
# Procedure, shortened: as §1
# Neu5Ac(a2-3)GalNAc = target: Neu5Ac(a2-3)GalNAc
# Procedure, shortened: as §1
# [31] = target: Neu5Ac(a2-3)GalNAc(b1-4)GlcNAc
# Procedure, shortened: as §1
# [32] = target: Neu5Ac(a2-3)[GalNAc(b1-4)]Gal(b1-4)Glc
# Procedure, shortened: as §1
# [33] = target: Neu5Ac(a2-3)[GalNAc(b1-4)]Gal(b1-4)GlcNAc
# Procedure, shortened: as §1
# [34] = target: Neu5Ac(a2-3)[GalNAc(b1-4)]Gal(b1-4)GlcNAc(b1-3)GalNAc
# Procedure, shortened: as §1
# [35] = target: Neu5Ac(a2-3)[Neu5Ac(a2-6)]GalNAc
# Procedure, shortened: as §1
# Neu5Ac(a2-6)Gal = target: Neu5Ac(a2-6)Gal
# Procedure, shortened: as §1
# [36] = target: Neu5Ac(a2-6)Gal(b1-3)GlcNAc(b1-3)[Gal(b1-4)GlcNAc(b1-6)]Gal(b1-4)Glc
# Procedure, shortened: as §1
# Neu5Ac(a2-6)Gal(b1-4)Glc = target: Neu5Ac(a2-6)Gal(b1-4)Glc
# Procedure, shortened: as §1
# [37] = target: Neu5Ac(a2-6)Gal(b1-4)GlcNAc
# Procedure, shortened: as §1
# [38] = target: Neu5Ac(a2-6)Gal(b1-4)GlcNAc(b1-2)Man
# Procedure, shortened: as §1
# [39] = target: Neu5Ac(a2-6)Gal(b1-4)GlcNAc(b1-2)Man(a1-3)Man(b1-4)GlcNAc(b1-4)GlcNAc
# Procedure, shortened: as §1
# [40] = target: Neu5Ac(a2-6)Gal(b1-4)GlcNAc(b1-2)Man(a1-3)[Gal(b1-4)GlcNAc(b1-2)Man(a1-6)]Man(b1-4)GlcNAc(b1-4)GlcNAc
# Procedure, shortened: as §1
# [41] = target: Neu5Ac(a2-6)Gal(b1-4)GlcNAc(b1-2)Man(a1-3)[GlcNAc(b1-2)Man(a1-6)]Man(b1-4)GlcNAc(b1-4)GlcNAc
# Procedure, shortened: as §1
# [42] = target: Neu5Ac(a2-6)Gal(b1-4)GlcNAc(b1-2)Man(a1-3)[GlcNAc(b1-4)][Neu5Ac(a2-6)Gal(b1-4)GlcNAc(b1-2)Man(a1-6)]Man(b1-4)GlcNAc(b1-4)GlcNAc
# Procedure, shortened: as §1
# [43] = target: Neu5Ac(a2-6)Gal(b1-4)GlcNAc(b1-2)Man(a1-3)[Man(a1-6)]Man(b1-4)GlcNAc(b1-4)GlcNAc
# Procedure, shortened: as §1
# [44] = target: Neu5Ac(a2-6)Gal(b1-4)GlcNAc(b1-2)Man(a1-3)[Neu5Ac(a2-3)Gal(b1-4)GlcNAc(b1-2)Man(a1-6)]Man(b1-4)GlcNAc(b1-4)GlcNAc
# Procedure, shortened: as §1
# [45] = target: Neu5Ac(a2-6)Gal(b1-4)GlcNAc(b1-2)Man(a1-3)[Neu5Ac(a2-6)Gal(b1-4)GlcNAc(b1-2)Man(a1-6)]Man(b1-4)GlcNAc(b1-4)GlcNAc
# Procedure, shortened: as §1
# [46] = target: Neu5Ac(a2-6)Gal(b1-4)GlcNAc(b1-2)Man(a1-3)[Neu5Ac(a2-6)Gal(b1-4)GlcNAc(b1-2)Man(a1-6)]Man(b1-4)GlcNAc(b1-4)[Fuc(a1-6)]GlcNAc
# Procedure, shortened: as §1
# [47] = target: Neu5Ac(a2-6)Gal(b1-4)GlcNAc(b1-2)Man(a1-6)Man(b1-4)GlcNAc(b1-4)GlcNAc
# Procedure, shortened: as §1
# [48] = target: Neu5Ac(a2-6)Gal(b1-4)GlcNAc(b1-2)Man(a1-6)[Gal(b1-4)GlcNAc(b1-2)Man(a1-3)]Man(b1-4)GlcNAc(b1-4)GlcNAc
# Procedure, shortened: as §1
# [49] = target: Neu5Ac(a2-6)Gal(b1-4)GlcNAc(b1-2)Man(a1-6)[GlcNAc(b1-2)Man(a1-3)]Man(b1-4)GlcNAc(b1-4)GlcNAc
# Procedure, shortened: as §1
# [50] = target: Neu5Ac(a2-6)Gal(b1-4)GlcNAc(b1-2)Man(a1-6)[Man(a1-3)]Man(b1-4)GlcNAc(b1-4)GlcNAc
# Procedure, shortened: as §1
binder,measurement,setting,value
B1,glycan array binding signal (z-score),[1],-0.086
same,glycan array binding signal (z-score),[2],-0.076
same,glycan array binding signal (z-score),[3],-0.089
same,glycan array binding signal (z-score),[4],-0.086
same,glycan array binding signal (z-score),[5],-0.082
same,glycan array binding signal (z-score),[6],-0.075
same,glycan array binding signal (z-score),[7],-0.005
same,glycan array binding signal (z-score),[8],-0.075
same,glycan array binding signal (z-score),[9],-0.006
same,glycan array binding signal (z-score),[10],-0.081
same,glycan array binding signal (z-score),[11],-0.072
same,glycan array binding signal (z-score),[12],-0.067
same,glycan array binding signal (z-score),[13],-0.084
same,glycan array binding signal (z-score),[14],-0.079
same,glycan array binding signal (z-score),[15],-0.084
same,glycan array binding signal (z-score),[16],-0.074
same,glycan array binding signal (z-score),[17],-0.08
same,glycan array binding signal (z-score),[18],-0.087
same,glycan array binding signal (z-score),[19],-0.079
same,glycan array binding signal (z-score),[20],-0.078
same,glycan array binding signal (z-score),[21],-0.079
same,glycan array binding signal (z-score),[22],-0.085
same,glycan array binding signal (z-score),[23],-0.071
same,glycan array binding signal (z-score),[24],-0.065
same,glycan array binding signal (z-score),[25],-0.055
same,glycan array binding signal (z-score),[26],-0.062
same,glycan array binding signal (z-score),[27],-0.078
same,glycan array binding signal (z-score),[28],-0.07
same,glycan array binding signal (z-score),[29],-0.078
same,glycan array binding signal (z-score),[30],-0.089
same,glycan array binding signal (z-score),Neu5Ac(a2-3)GalNAc,-0.08
same,glycan array binding signal (z-score),[31],-0.084
same,glycan array binding signal (z-score),[32],-0.082
same,glycan array binding signal (z-score),[33],-0.078
same,glycan array binding signal (z-score),[34],-0.049
same,glycan array binding signal (z-score),[35],-0.079
same,glycan array binding signal (z-score),Neu5Ac(a2-6)Gal,-0.082
same,glycan array binding signal (z-score),[36],-0.085
same,glycan array binding signal (z-score),Neu5Ac(a2-6)Gal(b1-4)Glc,-0.078
same,glycan array binding signal (z-score),[37],-0.082
same,glycan array binding signal (z-score),[38],-0.084
same,glycan array binding signal (z-score),[39],-0.086
same,glycan array binding signal (z-score),[40],-0.087
same,glycan array binding signal (z-score),[41],-0.078
same,glycan array binding signal (z-score),[42],-0.085
same,glycan array binding signal (z-score),[43],-0.082
same,glycan array binding signal (z-score),[44],-0.077
same,glycan array binding signal (z-score),[45],-0.077
same,glycan array binding signal (z-score),[46],-0.074
same,glycan array binding signal (z-score),[47],-0.087
same,glycan array binding signal (z-score),[48],-0.071
same,glycan array binding signal (z-score),[49],-0.083
same,glycan array binding signal (z-score),[50],-0.078
